Experimental data from PubChem BioAssay AID1745853 (National Center for Advancing Translational Sciences (NCATS), 2022).
Values joined by “and” are separate entries in the source; they are usually repeats but may differ in a detail not shown here. Identical values can stand only once. Some of the results follow. Further columns of the screen follow, without active or inactive calls.

Legend:
Assay in all cases: Primary Screen for Target Class Profiling of Small Molecule Inhibitors of Methyltransferases
[1] = target: Glycine N-methyltransferase (Homo sapiens) (UniProt Q14749); conditions: purified enzyme, MTase-Glo SAH luminescence; measured here: GNMT inhibition; at 40 µM; stronger effect = lower value
In short: (§1)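 Each enzyme was reacted with SAM and its substrate, with compounds tested once at 40 uM; SAH formed was read by MTase-Glo luminescence.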

[2] = target: Guanidinoacetate N-methyltransferase (Homo sapiens) (UniProt Q14353); conditions: purified enzyme, MTase-Glo SAH luminescence; measured here: GAMT inhibition; at 40 µM; stronger effect = lower value
In short: as §1

[3] = target: Histamine N-methyltransferase (Homo sapiens) (UniProt P50135); conditions: purified enzyme, MTase-Glo SAH luminescence; measured here: HNMT inhibition; at 40 µM; stronger effect = lower value
In short: as §1

[4] = target: Nicotinamide N-methyltransferase (Homo sapiens) (UniProt P40261); conditions: purified enzyme, MTase-Glo SAH luminescence; measured here: NNMT inhibition; at 40 µM; stronger effect = lower value
In short: as §1

[5] = target: Phenylethanolamine N-methyltransferase (Homo sapiens) (UniProt P11086); conditions: purified enzyme, MTase-Glo SAH luminescence; measured here: PNMT inhibition; at 40 µM; stronger effect = lower value
In short: as §1
% is scaled to controls: 0 for no effect and ±100 for the full control effect.

| Compound | activity change, negative = inhibition [1] | activity change, negative = inhibition [2] [%] | activity change, negative = inhibition [3] | activity change, negative = inhibition [4] | activity change, negative = inhibition [5] |
| --- | --- | --- | --- | --- | --- |
| CN(C)CCN1C(=O)c2cc3occc3n2CC1(C)C(=O)NC1CCCCC1 (stereo not drawn) | 0.234% | 0 | -7.34% | 9.54% | 1.58% |
| COC(=O)C(CC1(OC(=O)C(C)C)c2ccccc2N2C(=O)C(C)(C)N(O)C21)n1cnc2ccccc2c1=O (stereo not drawn) | -4.91% | -5.54 | 2.14% | -18.1% | -4.9% |
| CC(C)CCNC(=O)C1(C)Cn2c(nc3ccccc32)C(=O)N1Cc1ccccc1Cl (stereo not drawn) | -5.16% | 4.79 | 0.036% | -0.44% | 0.685% |
| COc1ccc(-c2ccnc(N[C@H]3CO[C@H]4[C@@H]3OC[C@@H]4NC(=O)Nc3ccc(C(C)=O)cc3)n2)cc1 | -37% | -8.49 | -20.4% | -22.6% | -6.83% |
| CC1=C(C(=O)N2CCC(CCC(=O)Nc3ccc4c(c3)OCCO4)CC2)OCCO1 | -0.414% | 2.89 | 1.28% | 0.456% | 5.33% |
| CCOC(=O)c1cc2n(n1)CC(C)(C(=O)NC1CCC(C)CC1)N(Cc1cccc(F)c1)C2=O (stereo not drawn) | 2.18% | 0 | 1.25% | -1.3% | -0.3% |
| CN(C)c1ccc(C(=O)N[C@H]2CC(C)(C)[C@@H]3C[C@@](C)(O)CC[C@]23CCC(=O)NC2CC2)cc1 | -2.28% | -1.59 | 0.381% | -2.13% | -6.29% |
| CN(C)S(=O)(=O)c1cccc(-c2nnc(-c3ccccc3Cl)o2)c1 | 1.09% | 0 | 1.59% | -6.78% | 2.2% |
| COc1ccc2[nH]c(=O)c3c(c2c1)OC(C)(C)C=C3 | -9.14% | 4.71 | 4.83% | -14.7% | 1.32% |
| Cc1ccc(Cc2nn3c(SCC(=O)Nc4ccc(C)c(C)c4)nnc3[nH]c2=O)cc1 | -5.34% | 1.63 | -5.45% | -12.1% | -6.41% |
| O=C([C@H]1O[C@H](CCN2CCC(CO)CC2)CC[C@@H]1O)N1CCN(c2ccccc2)CC1 | -4.9% | -6.75 | -4.09% | -10% | -3.51% |
| COc1cccc(CNC(=O)Cn2nc3n(CCc4ccccc4)c(=O)c4ccccc4n3c2=O)c1 | -2.32% | 0.957 | 3.13% | -4.12% | -1.67% |
| CN[C@@H](C)C(=O)N[C@H](C(=O)N1CCC[C@H]1c1nc(C(=O)c2ccc(F)cc2)cs1)C1CCCCC1 | – | 0.254 | – | -16.8% | -0.952% |
| COc1ccc(NC(=O)CCc2nnc3n(CCc4ccccc4)c(=O)c4ccccc4n23)cc1 | 0.431% | 0 | 5.69% | -3.75% | 0.335% |
| C=Cc1cc(O)cc2nc(-c3ccc(O)c(F)c3)oc12 | -72.1% | -43.9 | -76.1% | -54% | -57% |
| CC(C)OCCCn1c(=O)c2ccccc2n2c(=O)n(CC(=O)Nc3ccc(F)cc3)nc12 | 4.01% | 0.412 | 9.09% | -0.38% | 5.93% |
| Cc1cccc(CN2C(=O)c3cc4ccccc4n3CC2(C)C(=O)NCCCOC(C)C)c1 (stereo not drawn) | 2.68% | 4.49 | 0.83% | 0.641% | 1.67% |
| C[C@@H]1O[C@@H](O[C@H]2[C@H](O[C@H]3[C@H](O[C@H]4CC[C@@]5(CO)C(CC[C@]6(C)C5CC=C5C7CC(C)(C)C[C@@H](O)[C@]7(C)CC[C@]56C)C4(C)C)O[C@H](C(=O)O)[C@@H](O)[C@@H]3O)OC[C@@H](O)[C@@H]2O)[C@H](O)[C@H](O)[C@H]1O (stereo partly drawn) | 5.89% | 8.47 | 7.44% | -8.92% | 10.3% |
| CCCn1c(=O)c2ccc(C(=O)NC(C)C)cc2n2c(=O)n(CC(=O)NCc3ccc(C)cc3)nc12 | 8.84% | 0 | 3.52% | 6.94% | 8.47% |
| COc1ccccc1CNC(=O)C1(C)Cn2nc(-c3ccccc3)cc2C(=O)N1c1ccc(C)cc1C (stereo not drawn) | 2.35% | 0 | 5.79% | 3.35% | -1.93% |

| Compound | activity change, negative = inhibition [1] | activity change, negative = inhibition [2] [%] | activity change, negative = inhibition [3] | activity change, negative = inhibition [4] | activity change, negative = inhibition [5] |
| --- | --- | --- | --- | --- | --- |
| Cn1c2c(c3ccccc31)C(C(=O)NCc1ccccc1)N(CCc1ccc(Cl)cc1)C(=O)CS2 (stereo not drawn) | 12.6% | 0.43 | 6.91% | 8.61% | 6.45% |
| COc1nccc(-c2c(-c3ccc(F)cc3)ncn2C2CCC(O)CC2)n1 (stereo not drawn) | 2.17% and 2.95% | 8.97 | 17.2% and 12.1% | -4.12% and -8.11% | 25.2% and 6.98% |
| CCCN1CCN(CCCNC(=O)c2cc3n(n2)CC(C)(C(=O)NCc2ccc(F)cc2)N(C)C3=O)CC1 (stereo not drawn) | -4.01% | 0 | -2.41% | -3.5% | -5.59% |
| Cc1ccc(C(c2sc3nc(-c4ccco4)nn3c2O)N2CCOCC2)cc1 (stereo not drawn) | – | 2.2 | – | -9.95% | 4.52% |
| C[C@@H]1CN(C(=O)CN2CCN(c3ncccn3)CC2)C[C@@]1(O)C1CCC1 | -7.22% | -6.59 | -3.7% | -14.2% | -9.85% |
| Cc1cc2c(cc3n2CC(C)(C(=O)NC2CCCCCC2)N(Cc2ccco2)C3=O)o1 (stereo not drawn) | -1.91% | 4.9 | 3.07% | -7.6% | 0.84% |
| CC(C)n1cc2cc(C(=O)O)sc2c1 | -5.58% | -0.463 | 1.53% | -0.643% | -0.806% |
| CC(C)COC(=O)N1CCCn2nc(-c3nc4ccccc4n3C)cc2C1 | -10.6% | -10.5 | -9.75% | -22.2% | -13.5% |
| COC1C=C([C@@H]2CC=C3[C@@]4(C)C(CC[C@]32C)[C@@]2(C)C=CC(=O)C(C)(C)C2C[C@H]4OC(C)=O)C(=O)O1 (stereo partly drawn) | 1.69% | 7.23 | 6.2% | -7.59% | 1.46% |
| CC(C)OCCCn1c(=O)c2ccccc2n2c(SCc3cccc(Cl)c3)nnc12 | -7.58% | 0 | 2.57% | -10.2% | 2.96% |
| O=C1NC2(CCN(Cc3cncs3)C2)OCc2ccccc21 (stereo not drawn) | -12.4% | -9.09 | -2.58% | -7.63% | -5.22% |
| COc1ccc(CNc2nc3c(S(=O)(=O)c4ccc(Br)cc4)nnn3c3ccccc23)cc1 | -2.26% | 0.817 | 8.61% | -4.59% | -1.19% |
| O=c1cc(-c2ccccc2)oc2c(O)c(O)ccc12 | -19.8% | 9.05 | 4.29% | -6.78% | 5.1% |
| Cc1nccn1CCCC(=O)N1CC[C@](C)(O)[C@H](C)C1 | -0.88% | -0.73 | 0.821% | -4.02% | -0.171% |
| CCN(CC)CCOC(=O)C1(C2CCCCC2)CCCCC1 | -1.33% | 12.3 | 3.01% | -10.9% | 2.06% |
| CCNC(=O)N1CCC(NC(=O)c2cccc(CCC(C)(C)O)c2)CC1 | -3.31% | -5.45 | -1.26% | -5.69% | -6.17% |
| CC1(C)OC(=O)C(OCC2CC2)=C1c1ccc(S(C)(=O)=O)cc1 | -0.656% | -8.44 | 10.8% | -11.6% | 1.78% |
| CC(C)NC(=O)N1CCN(S(C)(=O)=O)[C@@H](C(=O)N[C@H](Cc2c[nH]c3ccccc23)C(N)=O)C1 | -5.24% | -10.7 | -1.8% | -14% | -2.46% |
| COc1cc2c(Nc3ccc(Cl)c(Cl)c3F)ncnc2cc1OCC1C[C@@H]2CN(C)C[C@@H]2C1 (stereo partly drawn) | -50.2% | – | -83% | – | – |
| CCCc1cc(C)[nH]c(=O)c1CNC(=O)c1cc(-c2ccc(N3CCN(C(C)C)CC3)nc2)cc2c1cnn2C(C)C | -4.15% | 21.4 | -25.8% | -29.7% | 5.83% |

| Compound | activity change, negative = inhibition [1] | activity change, negative = inhibition [2] [%] | activity change, negative = inhibition [3] | activity change, negative = inhibition [4] | activity change, negative = inhibition [5] |
| --- | --- | --- | --- | --- | --- |
| COC(=O)C1=COC(OC2OC(CO)C(O)C(O)C2O)C2C1CC(OC(=O)C(O)CC(=O)O)C2C (stereo not drawn) | 4.07% | 6.08 | 9.76% | -3.69% | 5.09% |
| O=C(CN1C(=O)NC2(CCCCC2)C1=O)Nc1ccc2c(c1)OCCO2 | -7.44% | -9.96 | -5.02% | -14.8% | 4.8% |
| COc1cccc(-c2cn(-c3ccc(CCN4CCC(O)CC4)cc3)c3ncnc(N)c23)c1 | -79.6% | -69.5 | -89% | -93.7% | -86.4% |
| COc1ccccc1N1CCN(S(=O)(=O)c2ccc3[nH]c4c(c3c2)CCCC4)CC1 | -4.1% | 2.91 | -1.79% | -4.48% | 0.922% |
| C#C[C@]1(O)CC[C@H]2[C@@H]3CCC4=C/C(=N/O)CC[C@@H]4[C@H]3CC[C@@]21CC | -4.38% | 6.79 | 3.22% | -25.1% | -4.7% |
| Cc1cc(CN(C)C(=O)c2cc(COc3ccc(F)cc3F)on2)n[nH]1 | -0.194% | 1.17 | 2.35% | -0.991% | 0.927% |
| CC1(C(=O)NC2CCCCC2)Cn2c(ccc2-c2ccccc2)C(=O)N1CCCN1CCOCC1 (stereo not drawn) | 10.4% | 1.11 | 7.54% | 7.46% | 3.3% |
| C[N+]1(C)CCC(OC(=O)C(c2ccccc2)c2ccccc2)CC1 | 3.41% | 6.79 | 14.9% | -7.49% | 2.07% |
| Cc1ccc(C2c3cccn3-c3sc4c(c3CN2C(=O)Nc2ccccc2F)CCCC4)cc1 (stereo not drawn) | -6.9% | -11.4 | -3.31% | -13.9% | -4.65% |
| CC(C)C(=O)N1CCN(CCn2nc3n(c2=O)CCCC3)CC1 | 95.7% | -10.7 | -3.6% | -11.1% | 5.43% |
| COc1ccc(-c2nc(C(C)C)nc3c2CCN([S+](=O)([O-])c2c(C)noc2C)CC3)cc1 | 1.3% | -1.15 | -0.215% | -0.025% | 5.34% |
| COc1nc2nc(CCc3ccccc3)n(C)c2cc1-c1cncnc1 | -12% | -3.79 | -6.35% | -24.7% | -13.7% |
| Cc1nc2c(c(-c3ccc(Cl)cc3)n1)CCN(C(=O)Cc1cccc(Cl)c1)CC2 | -9.48% | -5.82 | -2.2% | -12.2% | -0.357% |
| CCC(=O)N1CCC(n2nccc2NC(=O)Nc2ccccc2Cl)CC1 | -3.77% | -4.52 | -1.93% | -8.59% | -3.33% |
| O=C1C[C@H]2CC[C@@H](CN1)N2Cc1ccc(OCc2ccccc2)cc1 | -7.16% | -7.89 | -4.82% | -10.9% | -5.9% |
| NC(=O)c1ccc(N(C(N)=O)c2c(F)cccc2F)nc1-c1ccc(F)cc1F | -3.53% | -4.82 | 1.76% | -17.1% | -12.4% |
| COc1cc2occc2c(O[C@@H]2O[C@H](CO)[C@@H](O)[C@H](O)[C@H]2O)c1CCC(=O)O | 0% | 7.14 | 10.2% | -6.4% | 2% |
| CC1(C(=O)NCc2ccccc2Cl)Cn2cnc(C(=O)NCCc3cccs3)c2C(=O)N1C1CC1 (stereo not drawn) | 1.92% | 0.502 | 5.84% | -2.6% | 3.27% |
